# Source: PubChem BioAssay AID686979 (National Center for Advancing Translational Sciences (NCATS), 2013)
# Values joined by “and” are separate entries in the source; they are usually repeats but may differ in a detail not shown here. Equal values may be shown once. The whole screen tested about 420,000 compounds, of which about 50,000 (12%) were called active. The inconclusive results got no clear call from the source; some entries with a clear call stand among them for comparison. Calls come from the whole dose curve; as a rule, active = well fitted inhibition curve with a large enough effect; inconclusive = small, poorly fitted or top-dose-only effect; inactive = flat fitted curve, though single readings scatter. A potency beside an inconclusive call is a rough fit, not a confirmed value.
# Experiment: qHTS for Inhibitors of human tyrosyl-DNA phosphodiesterase 1 (TDP1): qHTS in cells in presence of CPT; note: nearly all actives have a fitted effect of over 55% in size
# Conditions: chicken DT40 Tdp1-/-;hTDP1 cells + 20 nM CPT, ATP luminescence, 48 h; activity change, negative = growth inhibition: at 46.2 µM (top of the series) unless noted
# Method in brief: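 Chicken DT40 Tdp1-/- cells stably complemented with human TDP1 were seeded at 400 cells/well in medium containing 20 nM camptothecin, exposed to pin-transferred compounds, and grown at 37 °C for at least 48 hr. Viability was read as ATP luminescence.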
# % is set by controls: 0 for no effect and ±100 for the full control effect; potency is the fitted concentration of half-maximal effect; tags give direction and shape of the fitted curve.
Structure (SMILES),Potency,"activity change, negative = growth inhibition"
CC(C(=O)Nc1nccs1)c1ccc([N+](=O)[O-])cc1 (configuration not stated),inactive,
CC(C)C[C@H](NC(=O)C1CCN(S(=O)(=O)c2ccccc2)CC1)C(=O)NCc1ccccn1,inactive,
CC12CCC(C/C1=N/O)C2(C)C (configuration not stated),inactive,
COc1ccc(OC)c(NS(=O)(=O)c2ccc(-n3cccn3)cc2)c1,"inconclusive: 23.1 µM [inhibitor, single point] and inconclusive: 18.4 µM [inhibitor, single point]",
Cc1ccc(C)c(S(=O)(=O)N(C)c2ccc(OC(=O)C3CCN(C(=O)Nc4ccccc4)CC3)cc2)c1,inactive,
Cc1ccc2c(c1)nnn2C1CCN(S(=O)(=O)c2ccc(C(=O)N(C)C)cc2)CC1,inactive,
COc1ccc(C2(c3ccc(OC)cc3)NC(=O)N(CC(=O)Nc3cc(C)ccc3OC)C2=O)cc1,active: 18.4 µM,
O=C(COC(=O)c1cccnc1Cl)c1ccc(F)cc1,inactive,
O=C(NCc1ccccc1)c1cc(C2CCCCN2S(=O)(=O)c2cccs2)on1 (configuration not stated),"inconclusive: 29.1 µM [inhibitor, single point]",
COc1ccc(-c2cc(CCCC(=O)NCCc3ccc(OC)cc3OC)no2)cc1,"inconclusive: 1.16 µM [inhibitor, full curve]",
COc1ccc(C)cc1S(=O)(=O)N1CCN(C/C=C/c2ccccc2)CC1,"inconclusive: 29.1 µM [inhibitor, single point]",
COc1cc(OC)cc(-c2cc(N)n(S(=O)(=O)Cc3ccccc3)n2)c1,"inconclusive: 29.1 µM [inhibitor, single point]",
COCCCNC(=O)Cn1c(=O)n(-c2ccc(C)c(C)c2)c(=O)c2c3c(sc21)CCCCC3,inactive,
COc1ccc(-c2sc3cc4c(cc3c2-c2ccc(OCCN3CCOCC3)cc2)OCO4)cc1,"inconclusive: 29.1 µM [inhibitor, single point]",
Cc1nc2c(-c3ccccc3)c(C)nn2c(C)c1CCC(=O)NC(C)CCc1ccco1 (configuration not stated),active: 11.6 µM,
CCN1/C(=C/c2ccc3cc(C)ccc3[n+]2CC)Sc2ccc3sccc3c21,active: 0.92 µM,
Cc1ccc2c(C(=O)CN3CCCC3)c(C)[nH]c2c1,inactive,
CCCCNC(=O)C(CC)Sc1nc2ccccc2c(=O)n1Cc1ccco1 (configuration not stated),"inconclusive: 18.4 µM [inhibitor, partial curve]",
COc1ccc(S(=O)(=O)N2CCCCCC2)cc1C(=O)N(C)Cc1ccc(C)cc1,"inconclusive: 18.4 µM [inhibitor, single point]",
CC(C)c1ccc(C(=O)N2CCCCC2c2cc(C(=O)NCc3cccnc3)no2)cc1 (configuration not stated),"inconclusive: 16.4 µM [inhibitor, partial curve]",
COc1ccc(OC)c(-c2cc(C3CCN(c4ncccc4[N+](=O)[O-])CC3)[nH]n2)c1,"inconclusive: 23.1 µM [inhibitor, single point]",
CCC(C)n1c(=O)c2sccc2n2c(CCCC(=O)NCc3ccccc3Cl)nnc12 (configuration not stated),inactive,
CC1(Oc2ccc3ccccc3c2)CCN(Cc2ccc(OC(F)(F)F)cc2)C1 (configuration not stated),inactive,
CN(C)c1ccc(/C=C/c2cc(Cl)nc3ccccc23)cc1,"inconclusive: 15.8 µM [inhibitor, single point]",

Structure (SMILES),Potency,"activity change, negative = growth inhibition"
FC(F)(F)c1cccc(NC(=S)Nc2cccc(NC(=S)Nc3cccc(C(F)(F)F)c3)n2)c1,active: 29.1 µM,
COCCNC(=O)c1sc2ncccc2c1-n1c(C)ccc1C,active: 18.4 µM,
COc1ccc(C(=O)/C=C/C(=O)N(CC(=O)NCCC(C)C)Cc2cccs2)c(O)c1,active: 1.84 µM,
COc1ccc(NC(=O)C23CC4CC(C2)CC(c2ccccc2)(C4)C3)c(OC)c1,"inconclusive: 16.4 µM [inhibitor, single point]",
CCN(CC)CCOc1ccccc1C(C)=O,inactive,
CCOc1ccc(-c2nc(S(=O)(=O)c3ccccc3)c(NCc3cccnc3)o2)cc1,"inconclusive: 29.1 µM [inhibitor, single point]",
COc1ccccc1CNn1c(-c2cccc(C)c2)nc2ccccc2c1=O,"inconclusive: 25.9 µM [inhibitor, single point]",
COc1ccccc1N1CCN(C(=O)c2cc(C)on2)CC1,"inconclusive: 2.59 µM [inhibitor, partial curve]",
CCOC(=O)c1cccc(NC(=O)Cn2c(=O)c3cccn3c3ccccc32)c1,"inconclusive: 11.6 µM [inhibitor, partial curve]",
CCOc1ccc(N2C(=O)c3cccnc3C2Nc2ccc(OC)cc2)cc1 (configuration not stated),inactive,
Cc1c(NS(=O)(=O)c2cccc(C(=O)NCc3ccco3)c2)c(=O)n(-c2ccccc2)n1C,,inconclusive: -34.3% [inhibitor]
C[C@@H]1CCCCO[C@H](CN(C)C(=O)Nc2ccccc2)[C@@H](C)CN([C@H](C)CO)C(=O)c2cc(NS(=O)(=O)c3cn(C)cn3)ccc2O1,inactive,
CCCCCOC(=O)NCCOC(=O)Nc1ccc(C(=O)OCC)cc1,"inconclusive: 14.6 µM [inhibitor, partial curve, poor fit]",
CCC(C)NC(=O)COC(=O)c1oc2ccccc2c1CSc1ccc(Cl)cc1 (configuration not stated),"inconclusive: 29.1 µM [inhibitor, single point]",
CC(=O)c1cccc(NC(=S)NC(=O)c2ccccc2)c1,"inconclusive: 29.1 µM [inhibitor, single point]",
CC(C)Oc1ccc(/C=N/NC(=O)c2ccc(N(Cc3ccccc3)S(C)(=O)=O)cc2)cc1,"inconclusive: 29.1 µM [inhibitor, single point]",
Cc1ccc(-c2nnc(NC(=O)Cc3ccc(F)cc3)o2)c(C)c1,active: 10.3 µM,
COc1ccc2c(c1)c(=O)c(S(=O)(=O)c1ccc(F)cc1)cn2Cc1ccccc1Cl,active: 0.259 µM,
O=C1CSC(c2cccc([N+](=O)[O-])c2)N1Cc1ccccc1 (configuration not stated),inactive,
Oc1ccc(Cl)cc1CNCc1ccc(Cl)cc1,"inconclusive: 29.1 µM [inhibitor, single point]",
Cc1ccc(CNC(=O)C2CCCN(S(=O)(=O)c3cccc4nonc34)C2)cc1 (configuration not stated),"inconclusive: 29.1 µM [inhibitor, single point]",
CC(C)C[C@@H]1CN(CCCC[C@H]2CNC(=O)C(=O)N2CCC2CCCCC2)C(=O)C(=O)N1CCc1ccc(O)cc1,inactive,
NC(=O)[C@@H]1CCCN1Cc1nc(-c2ccccc2)no1,inactive,
CCOC(=O)C1CCN(C(=O)C2CCCN(S(=O)(=O)c3ccc(OCC)c(Cl)c3)C2)CC1 (configuration not stated),active: 6.51 µM,

Structure (SMILES),Potency,"activity change, negative = growth inhibition"
COc1ccc(C)cc1N(C(=O)c1ccc(F)cc1)c1nc2ccccc2s1,"inconclusive: 23.1 µM [inhibitor, single point]",
CCCC(=O)Nc1ccc2oc(-c3ccc(OC)c(Br)c3)nc2c1,"inconclusive: 23.1 µM [inhibitor, partial curve]",
C/C(=N\NC(=O)C(O)(c1ccccc1)c1ccccc1)c1ccc(NC(=O)CCCC(=O)O)cc1,inactive,
CC(=O)c1ccc(NC(=O)c2sc3nc(C)c(C)c(C)c3c2N)cc1,"inconclusive: 3.26 µM [inhibitor, single point]",
O=C(c1ccc2c(c1)OCO2)c1cn(Cc2ccc(Cl)cc2)c2ccc(F)cc2c1=O,"inconclusive: 29.1 µM [inhibitor, single point]",
OC(COc1ccccc1)CN(Cc1ccccc1)CC(O)COc1ccccc1 (configuration not stated),active: 16.4 µM,
Cc1cccc(N(C)c2cc(-c3ccc(F)cc3)nc3ccnn23)c1,"inconclusive: 1.84 µM [inhibitor, partial curve, poor fit]",
CCCCn1c(CCCNC(=O)CC)nc2ccccc21,"inconclusive: 13 µM [inhibitor, partial curve]",
C=CCN(C1CCCCC1)S(=O)(=O)c1ccc2c(c1)oc(=O)n2C,active: 8.2 µM,
COc1cccc2c(C)cc3nnc(SCC(=O)Nc4ccc(C)cc4)n3c12,"inconclusive: 29.1 µM [inhibitor, single point]",
Cc1cc(C(=O)CSc2nc(N)cc(=O)[nH]2)ccc1F,inactive,
CC(=O)c1sc(NC(=O)C2CCN(C(=O)c3ccccc3C)CC2)nc1-c1ccccc1,active: 18.4 µM,
COc1cc(/C=N/NC(=O)c2ccc(O)cc2)ccc1OCC(=O)N1CC(C)OC(C)C1 (configuration not stated),inactive,
COc1ccc(C(CC(=O)c2ccc3c(c2)OCO3)C(=O)O)cc1OC (configuration not stated),inactive,
O=C(COC(=O)c1ncc(Cl)c(Cl)c1Cl)NCCc1ccccc1,inactive,
Cc1cccc(CNc2cc(-c3ccccc3Cl)ncn2)c1,"inconclusive: 20.6 µM [inhibitor, partial curve]",
O=C1CS/C(=N/N=C/c2cccs2)N1Cc1ccc(F)cc1,active: 18.4 µM,
CCN(C[C@H]1N[C@@](CC)(C(=O)OC)[C@H]2C(=O)N(Cc3ccccc3)C(=O)[C@@H]12)C(=O)COc1ccccc1,"inconclusive: 29.1 µM [inhibitor, single point]",
COc1ccccc1NC(=O)Cn1c(=O)oc2ccccc21,active: 2.91 µM,
CCC(C)N(C)C1CCN(C(=S)Nc2cccc(SC)c2)CC1 (configuration not stated),inactive,
OC(CNCc1ccccc1)(c1ccccc1)c1ccccc1,inactive,
COc1cccc(NC(=O)CSc2nnnn2C2CCCCC2)c1,inactive,
CCCCOc1ccc(C(=O)N2CCCCC2CCN2CCOCC2)cc1 (configuration not stated),"inconclusive: 18.4 µM [inhibitor, single point]",
Cc1ccc2c(CC(=O)OCn3nnc4ccccc4c3=O)coc2c1,"inconclusive: 13 µM [inhibitor, partial curve, poor fit]",
